This data set has as its system ATP. The experiment in a line: switch fluorescence ratio, 500 uM ATP over buffer (Cy3 cluster intensity, sum of 5 cycles each) (fold (ratio)); higher = stronger signal-on switching upon ATP binding; sequences stand for … in TCGTCGGCAGCGTCAGATGTGTATAAGAGACAGTTTTTTTTTTTTTTTTTTTTTTTTT…TC. The conditions noted are these: aptamer strand: ATP DNA aptamer (quencher-CACCTGGGGGAGTATTGCGGAGGAAGG + anchor), 100 nM annealed; ATP concentration: 500 uM; one replicate. The method in brief:
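Clusters with intensities outside 100-1000 RFU were excluded. The remaining Cy3-labelled switching-strand clusters on a modified Illumina MiSeq flow-cell had been annealed to 100 nM quencher-labelled ATP aptamer and imaged in selection buffer, then after 15 min with 500 uM ATP at 22 °C, for five cycles separated by NaOH stripping and re-annealing. The fluorescence ratio, averaged per switch-domain sequence, is each cluster's summed target-cycle Cy3 intensity over its summed buffer-cycle Cy3 intensity.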

These results are taken from the supplement of paper PMC10126150.

Values marked as one replicate rest on one cluster of the flow cell; about a third of the high ones do not repeat.
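Also: ATP exposure 15 min at 22 °C before imaging.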

TTAACAGGGC: the switch fluorescence ratio was found to be 0.989. For the sequence AACTTTTTTC, the switch fluorescence ratio was determined as 1.05. With CCCACGTCTG the figure was 1.04; with GAGATAGTGG, 1.02; with TGCACATCCA, 1.04.

With GAAAGTCGGT, the switch fluorescence ratio was 0.982. Next, TCGAAGATC: 1.01; TAGTCTTTT: 0.982; CTGATTAAGC: 0.997. As for CGTTGGCAAC, the switch fluorescence ratio was 1.

Turning to TGTGTTAAGT, the switch fluorescence ratio turned out to be 0.979. Next, GGGGTTTCGC: 1.09; GATCCAAGCT: 1.01; AAAAGTGC: 1.07. With CTGGCAGATG the figure was 1.02; with CTTGGGATT, 1.01; with CACGGGCGAT, 1.03. With TTCTTGTG the figure was 1; with CGGTCATGTC, 1.02. With TCTTTAATAC, the switch fluorescence ratio worked out at 1.83. Next, TAGCATTTGA: 1.04. In the case of AGTAATGGCT, the switch fluorescence ratio came out at 0.95. With CTCGGGTTCG the figure was 0.97; with GGTGGTAGCG, 1.01; with AACCATAGAG, 1.03.

For GACGAAGAAG, the switch fluorescence ratio is 0.979. Turning to TATATCTT, the switch fluorescence ratio came to 1.01.

On to TAGTAATTT, for which the switch fluorescence ratio stood at 0.975. With TACACTGCAA the figure was 2.25; with AGACGGTTCC, 1.41; with GACTCACATT, 1.24.

With TAAGGGAGGC, the switch fluorescence ratio was 1.02.

Turning to GTTCACGACA, the switch fluorescence ratio came to 1.04.

In the case of GCTGGGCTCG, the switch fluorescence ratio is 1.04.

As to TATTGGTCAG, the switch fluorescence ratio is 1.01.

For TGACTAGTAT, the switch fluorescence ratio worked out at 0.986.

Regarding ATTATAGGCA, the switch fluorescence ratio was 0.987. As to GGGATGGAAA, the switch fluorescence ratio worked out at 0.997. Regarding CAGGGTCGG, the switch fluorescence ratio was 0.983. For GCATGGAACA, the switch fluorescence ratio worked out at 0.984.

Regarding AGGTCATAG, the switch fluorescence ratio was determined as 1.02. Next, ACATTAATTA: 1.07. Turning to GTATATTTTT, the switch fluorescence ratio worked out at 1.23.

As to GGGGCATATA, the switch fluorescence ratio stood at 0.994. With TTTGGAGAAG the figure was 1.05; with CAGATCGTTA, 1.02.

With GGCAGCGTTG, the switch fluorescence ratio was determined as 0.965. With TTGTATTTAC the figure was 1.18; with ATGAAGGTAC, 0.975.

For the sequence ACGCTTATTT, the switch fluorescence ratio was 1.04. Next, ACAGAGTGCT: 1.02. Next, TACTTCAGAT: 0.992; TTCATTTGGA: 0.985; GCGGCAGACA: 0.931.

As to GGGGGTAGAT, the switch fluorescence ratio is 1.04. For AATTAACTAA, the switch fluorescence ratio was 1.01.

Regarding TGAGATTTAC, the switch fluorescence ratio was 0.966. With AGATGAGGA the figure was 0.987; with GAGCGCTAC, 2.44.

GCGAGCCTTT: the switch fluorescence ratio came out at 0.959. With TGTACCCGCG, the switch fluorescence ratio was 1.1.

As to GTAGTCACTG, the switch fluorescence ratio was 1.06. Consider ATCGGTTTT, for which the switch fluorescence ratio was found to be 0.989. Next, GTTACAGC: 0.959; CACTTTGCAG: 1.02. With TACACCGAT the figure was 1.05; with ACCACCCTGT, 1.05; with TGTGGTTAC, 1. As for TCACTGAGGC, the switch fluorescence ratio is 1.

For TTAATGATCT, the switch fluorescence ratio worked out at 0.986. Turning to CGGTCCTTTT, the switch fluorescence ratio is 0.986.

Take TAAGTAACCG: the switch fluorescence ratio is 1.05. On to TTTCTTCGGC, for which the switch fluorescence ratio was determined as 1.28. Next, ACTTGGTCGG: 0.992; TGCCCCGTTT: 1.17. For AAAGGCGCGG, the switch fluorescence ratio was found to be 0.992. As for GGTCCTTTTA, the switch fluorescence ratio was 0.987. With AGGTCATGCG the figure was 1. With TACTGGCCTG the figure was 0.997; with AAAACCTATA, 1.08; with TTGTTTGCGC, 0.968.

With TATAAATCAT, the switch fluorescence ratio was 1.02.

CGGCGTATGT: the switch fluorescence ratio was found to be 1.04.

Regarding GTTAATTCAG, the switch fluorescence ratio turned out to be 0.974. With CTGCGGCTTA the figure was 1.04; with TTCTTGAGTG, 0.993.

For the sequence CTATCACGGT, the switch fluorescence ratio worked out at 1.02. CAATTTTCCA: the switch fluorescence ratio was 1.04.

For the sequence ATTCGTTATT, the switch fluorescence ratio is 0.992.

With CCGGCGTGGG, the switch fluorescence ratio is 1.07.

TTTGGACTAA: the switch fluorescence ratio amounted to 1.03.

With GATCATCATG, the switch fluorescence ratio is 0.997. Next, CTGAGCAGCG: 1.11; TATATCACGT: 1.05. Next, GATAGAAGTT: 0.991; CCTTTGAGTT: 0.967; TCCTGTCTTG: 0.981.

In the case of CCATTGCATG, the switch fluorescence ratio worked out at 1.08. Consider CTCACCGAGA, for which the switch fluorescence ratio worked out at 0.996.

Consider AACCACGGGG, for which the switch fluorescence ratio turned out to be 1.01. Next, CACCTTCATT: 1.12; CTACGTTATA: 1.81; CCACGGTGT: 2.21. Next, CTTCTTCAAC: 1.07; TTGGGAAAAC: 1.09; ACTCGAAGCT: 1.03. Regarding CCAGCCCCCG, the switch fluorescence ratio was 1.11.

ATGATAGCGA: the switch fluorescence ratio is 1.03. With CTTTTAAAT the figure was 1.13; with TATATGGTT, 0.985.

As for AAGTTAGAAT, the switch fluorescence ratio turned out to be 0.988. On to GGTAAAAGGG, for which the switch fluorescence ratio worked out at 0.955.

CGGCTGTCTA: the switch fluorescence ratio was 0.989.

As to AAGTACACCC, the switch fluorescence ratio stood at 1.36. Next, TAGGCTGCCT: 1.01. With GGGGTCTGCT, the switch fluorescence ratio was 0.99. For the sequence AGTCTGCATC, the switch fluorescence ratio was 1.48. With GATCCACTTC the figure was 1.05. With GAGTCACAAT the figure was 1.06; with TGGCAGAA, 0.952. As to CTTTAGGAAG, the switch fluorescence ratio was found to be 0.944.
